Experimental data taken from the supplement of paper PMC6531468.
The list shows a part of the results. These are enrichments in a pooled selection; single values are uncertain. Scores sum up all selected molecules that hold the word; the word was not tested alone.

Columns and labels:
Assay in all cases: 6-mer SELEX enrichment z-score vs GST control; IMP3 is the RNA-binding protein IGF2BP3; higher = more enriched by binding
[1] = test system: IMP3 KH1-4; details: construct: KH1-4 (164-579); SELEX round: R4
Sequence of IMP3 KH1-4 (chain, as listed by the source): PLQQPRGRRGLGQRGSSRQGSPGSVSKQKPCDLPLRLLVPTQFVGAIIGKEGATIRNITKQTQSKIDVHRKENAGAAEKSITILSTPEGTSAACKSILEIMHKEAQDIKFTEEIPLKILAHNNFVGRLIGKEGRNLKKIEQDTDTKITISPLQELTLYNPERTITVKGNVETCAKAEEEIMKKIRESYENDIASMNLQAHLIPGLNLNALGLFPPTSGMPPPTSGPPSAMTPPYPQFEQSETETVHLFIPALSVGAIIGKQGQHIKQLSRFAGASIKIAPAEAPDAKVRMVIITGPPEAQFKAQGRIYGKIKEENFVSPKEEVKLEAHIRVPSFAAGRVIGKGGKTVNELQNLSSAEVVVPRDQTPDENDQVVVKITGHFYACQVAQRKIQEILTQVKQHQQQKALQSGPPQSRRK
Procedure: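 SELEX-seq with GST-tagged IMP3 KH1-4 (Pro164-Lys579) and an N40 RNA pool, round 4. 6-mer z-score of sequence-tag enrichment normalised to the corresponding GST SELEX round; RNA k-mers written as DNA (T for U).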

[2] = test system: IMP3 RRM1-2; details: construct: RRM1-2 (1-163); SELEX round: R2
Sequence of IMP3 RRM1-2 (chain, as listed by the source): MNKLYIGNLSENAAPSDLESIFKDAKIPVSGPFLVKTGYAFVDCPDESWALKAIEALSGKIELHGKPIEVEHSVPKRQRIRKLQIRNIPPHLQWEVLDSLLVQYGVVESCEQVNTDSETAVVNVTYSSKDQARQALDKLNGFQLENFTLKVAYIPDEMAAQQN
Procedure: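 SELEX-seq with GST-tagged IMP3 RRM1-2 (Met1-Asn163) and an N40 RNA pool, round 2. 6-mer enrichment z-score normalised to GST SELEX. RNA written as DNA (T = U).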

[3] = target: IMP3 full-length (UniProt O00425); details: construct: FL IMP3 (1-579); SELEX round: R4
Sequence of UniProt O00425 (O00425 whole entry): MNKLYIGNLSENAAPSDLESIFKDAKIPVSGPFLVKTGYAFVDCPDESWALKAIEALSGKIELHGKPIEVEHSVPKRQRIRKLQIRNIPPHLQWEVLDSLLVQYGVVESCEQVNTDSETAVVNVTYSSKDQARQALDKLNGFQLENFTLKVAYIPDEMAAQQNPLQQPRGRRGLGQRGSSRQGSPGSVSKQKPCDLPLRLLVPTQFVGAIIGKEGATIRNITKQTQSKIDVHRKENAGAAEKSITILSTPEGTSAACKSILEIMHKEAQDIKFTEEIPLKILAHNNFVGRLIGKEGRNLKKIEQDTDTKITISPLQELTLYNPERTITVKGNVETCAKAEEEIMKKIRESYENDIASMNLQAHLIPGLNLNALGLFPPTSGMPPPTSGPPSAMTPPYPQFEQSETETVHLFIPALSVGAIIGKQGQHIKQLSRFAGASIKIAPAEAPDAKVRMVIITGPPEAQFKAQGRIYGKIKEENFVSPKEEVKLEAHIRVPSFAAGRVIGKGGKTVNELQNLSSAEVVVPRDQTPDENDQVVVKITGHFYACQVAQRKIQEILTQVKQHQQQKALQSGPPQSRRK
Procedure: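 SELEX-seq with GST-tagged full-length IMP3 and an N40 RNA pool, round 4. Each 6-mer is scored as an enrichment z-score of sequence tags containing it, normalised to the matching GST SELEX round. RNA written as DNA (T = U).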

[4] = test system: IMP3 KH1-2; details: construct: KH1-2 (164-376); SELEX round: R4
Sequence of IMP3 KH1-2 (chain, as listed by the source): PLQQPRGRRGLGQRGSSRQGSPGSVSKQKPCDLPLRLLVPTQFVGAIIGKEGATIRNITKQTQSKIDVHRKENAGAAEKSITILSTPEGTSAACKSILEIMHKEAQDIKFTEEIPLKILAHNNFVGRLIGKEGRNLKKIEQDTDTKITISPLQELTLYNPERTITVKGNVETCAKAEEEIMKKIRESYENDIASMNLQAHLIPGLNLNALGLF
Procedure: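 SELEX-seq with GST-tagged IMP3 KH1-2 (Pro164-Phe376) and an N40 RNA pool, round 4 (stringent 300/600 mM KCl washes). 6-mer z-score of sequence-tag enrichment normalised to the corresponding GST SELEX round; RNA k-mers written as DNA (T for U).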

Sequence	6-mer SELEX enrichment z-score [1]	6-mer SELEX enrichment z-score [2]	6-mer SELEX enrichment z-score [3]	6-mer SELEX enrichment z-score [4]
AACACT	0.91	1.65	0.51	–
TCTTCT	0.559	0.527	0.277	–
CGCCGC	0.152	-0.128	–	–
TAGTTG	-0.188	0.386	-0.167	–
AAATAA	1.35	-1.98	-1.14	1.48
TTTCCA	0.885	0.275	0.085	–
AACCCG	-2.55	-1.55	-2.1	–
CTGGCG	-0.456	0.234	0.175	–
TACTTG	-0.267	0.137	-0.296	–
CACCCT	-0.794	-0.208	-0.852	–
TGGTGG	0.615	0.473	0.447	0.641
GTTGTG	-0.052	0.311	-0.216	–
TGGCGT	-0.802	0.404	-0.051	–
TTCTCC	0.517	0.225	-0.049	–
GCCTGA	-0.876	-0.617	-0.912	–
ATGTGT	0.592	0.061	-0.154	–
AAGACA	0.626	-0.178	-0.226	–
CGCATC	0.765	0.358	1.53	–
TCACGT	-0.231	0.483	0.341	–
TGCCCC	-0.707	-0.532	-0.891	–
CGCGTG	-1.61	-0.12	-0.764	–
AGACAT	0.532	0.502	0.591	–
TACCGG	-0.14	-0.425	0.068	–
AATAAT	1.93	-0.631	0.078	–

Sequence	6-mer SELEX enrichment z-score [1]	6-mer SELEX enrichment z-score [2]	6-mer SELEX enrichment z-score [3]	6-mer SELEX enrichment z-score [4]
GGGTTC	0.078	0.399	0.255	0.208
ACCAGC	-0.863	0.162	-0.284	–
CCGCAT	0.662	0.545	0.95	–
CAACAT	1.58	2.48	–	–
GTCTGG	-0.085	0.413	0.295	–
AACATA	2.6	1.77	2.11	–
CTCGGA	-0.83	-0.093	-0.258	-0.755
CGGGGC	1.03	-0.122	1.05	–
AAGTCG	0.807	-0.119	0.696	–
GTCTGC	-0.025	0.324	0.322	–
TCCGTG	-0.062	-0.04	-0.037	-0.105
CATTAG	0.711	0.856	0.822	–
GAGGCG	0.472	0.002	0.781	–
ACCTAA	-2.04	-1.17	-2.27	–
AATATA	2.33	-0.424	0.22	2.18
TAGTTA	0.038	0.259	-0.174	-0.116
GCAGAT	0.372	0.222	0.518	0.285
TGGCTA	0.002	0.257	0.021	0.075
TGATGT	0.719	-0.083	-0.097	0.371
GAGTTA	-0.232	-0.132	-0.29	-0.2
CTCCGT	-0.156	0.035	0.032	-0.063
ATTCCC	0.221	-0.388	-0.559	-0.022
TGGGTA	-0.056	0.368	0.13	0.021
AGGGTT	0.209	0.235	0.224	0.263

Sequence	6-mer SELEX enrichment z-score [1]	6-mer SELEX enrichment z-score [2]	6-mer SELEX enrichment z-score [3]	6-mer SELEX enrichment z-score [4]
CCGGAG	-0.679	-0.952	-0.195	-0.549
AGGTCG	0.445	0.223	0.88	0.42
TATCTA	0.251	0.234	-0.116	0.21
TTCACA	1.81	2.29	2.09	2.27
ATGAAG	1.14	-0.868	-0.209	0.59
GGCACG	1.97	0.437	2.63	1.49
GACCTA	-1.29	-0.896	-1.33	-1.15
AGTAAT	0.456	-0.201	-0.039	0.304
AGTTGC	-0.211	0.246	-0.142	-0.274
ATGCCG	-0.15	-0.472	-0.249	-0.183
CTCCCA	-0.506	-0.306	-0.686	-0.385
CGAATA	0.211	-1.16	-0.588	0.136
TTCTTC	0.789	0.589	0.264	0.777
CCCAAT	-1.12	-0.61	-1.24	-1.09
AGCAAC	-0.522	0.903	0.634	-0.488
CAACGC	-0.65	0.062	0.079	-0.597
AAATGC	-0.31	-1.27	-1.08	-0.37
AAGCAA	-0.565	0.128	-0.336	-0.543
GAGTCT	-0.204	0.139	0.162	-0.19
ATCCGA	-1.61	-0.83	-0.973	-1.33
GAAGGT	0.058	-0.236	-0.033	0.066
CAGACC	-1.01	-0.265	-0.676	-0.769
CCTTGC	-0.803	-0.003	-0.649	-0.703
TACATT	1.79	1.15	1.38	2.01

Sequence	6-mer SELEX enrichment z-score [1]	6-mer SELEX enrichment z-score [2]	6-mer SELEX enrichment z-score [3]	6-mer SELEX enrichment z-score [4]
GGCAGG	1.35	0.119	1.72	1.19
AACCAT	0.532	1.52	0.416	0.66
CTAGCC	-0.664	-0.335	-0.591	-0.676
GCTAGC	-0.507	0.148	-0.123	-0.37
TTAGCA	0.542	0.341	0.275	0.341
AGCGGT	-0.111	0.138	0.208	-0.116
TCGCCG	-0.134	-0.055	0.306	-0.056
TTGTCC	0.111	0.071	-0.176	-0.031
CTGGTT	-0.171	0.338	-0.03	-0.127
GGGCCG	-0.069	-0.24	0.646	0.441
GCGAGG	-0.336	-0.107	0.264	-0.18
GACATC	-0.13	0.489	0.612	-0.323
GCCTAG	-0.886	-0.254	-0.558	-0.753
TTCTCG	-0.481	0.468	0.072	-0.317
TAGGCC	0.263	0.15	0.256	0.2
CGATAG	-0.288	-0.521	-0.204	-0.242
GGCCTG	0.046	-0.091	0.226	0.09
CCCCCA	0.426	-0.822	-0.619	1.02
TCAAGC	-1.02	0.535	-0.135	-0.994
TGAGCT	-1.15	0.059	-0.635	-1.03
CCGCCC	-0.828	-0.762	-0.662	-0.526
CGCTCC	0.064	-0.111	0.14	0.232
GAGGGA	0.892	-0.53	0.12	0.941
TTTTCA	1.18	0.791	0.938	1.43

Sequence	6-mer SELEX enrichment z-score [1]	6-mer SELEX enrichment z-score [2]	6-mer SELEX enrichment z-score [3]	6-mer SELEX enrichment z-score [4]
TTGAAC	-0.382	-0.647	-0.814	-0.47
TTGGTA	-0.358	0.496	-0.02	-0.209
CCGAGA	-2.31	-1.56	-1.45	-2.05
AAGACT	-0.293	-0.945	-1.03	-0.319
CGGAGT	-0.411	-0.226	-0.116	-0.355
CTCCAT	0.62	0.478	0.373	0.535
TGTCAA	-0.363	0.058	-0.169	-0.493
TGCACC	0.209	-0.137	0.071	0.026
AGATCG	0.087	-0.427	0.169	-0.129
AGCCCC	-0.113	-0.944	-0.421	0.348
ATAGTG	0.548	0.044	0.114	0.259
CACACG	0.758	1.86	2.09	0.667
GCCACG	-0.26	-0.434	0.21	-0.273
TCCTAT	0.733	0.15	-0.027	0.574
GATGGA	1.02	-0.626	-0.135	0.614
GTCGGG	0.399	0.318	0.883	0.497
TGCCCG	-1.49	-0.329	-0.853	-1.2
AAACTT	-0.079	-0.702	-1.04	0.004
TAATGT	0.759	-0.166	-0.191	0.399
CTGCTT	0.32	0.193	0.093	0.411
GAATCC	-0.785	-0.994	-1.06	-0.777
CGGTTA	-0.041	0.084	-0.029	-0.108
ACTACG	0.2	-0.338	-0.199	0.198
ACATGC	0.922	1.02	1.15	0.761
